# Data taken from paper PMC6919601, “Identification of Plasmodium dipeptidyl aminopeptidase allosteric inhibitors by high throughput screening” (PLoS ONE, 2019).
# The whole screen tested about 110,000 compounds, of which about 230 (0.21%) showed an effect of 50% or more. This is one part of the list.
# Biological target: DPAP1 (Plasmodium falciparum, UniProt Q8IIJ9)
# Experiment: primary screen, percent inhibition; read by cleavage of a fluorogenic dipeptide substrate; higher = more effect of the substance
# Design: species or system P. falciparum D10 trophozoite lysates; single well
# 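Further: 30 min substrate incubation versus DMSO and 10 µM JCP410 controls.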
# DPAP1, sequence (Q8IIJ9 whole entry, looked up): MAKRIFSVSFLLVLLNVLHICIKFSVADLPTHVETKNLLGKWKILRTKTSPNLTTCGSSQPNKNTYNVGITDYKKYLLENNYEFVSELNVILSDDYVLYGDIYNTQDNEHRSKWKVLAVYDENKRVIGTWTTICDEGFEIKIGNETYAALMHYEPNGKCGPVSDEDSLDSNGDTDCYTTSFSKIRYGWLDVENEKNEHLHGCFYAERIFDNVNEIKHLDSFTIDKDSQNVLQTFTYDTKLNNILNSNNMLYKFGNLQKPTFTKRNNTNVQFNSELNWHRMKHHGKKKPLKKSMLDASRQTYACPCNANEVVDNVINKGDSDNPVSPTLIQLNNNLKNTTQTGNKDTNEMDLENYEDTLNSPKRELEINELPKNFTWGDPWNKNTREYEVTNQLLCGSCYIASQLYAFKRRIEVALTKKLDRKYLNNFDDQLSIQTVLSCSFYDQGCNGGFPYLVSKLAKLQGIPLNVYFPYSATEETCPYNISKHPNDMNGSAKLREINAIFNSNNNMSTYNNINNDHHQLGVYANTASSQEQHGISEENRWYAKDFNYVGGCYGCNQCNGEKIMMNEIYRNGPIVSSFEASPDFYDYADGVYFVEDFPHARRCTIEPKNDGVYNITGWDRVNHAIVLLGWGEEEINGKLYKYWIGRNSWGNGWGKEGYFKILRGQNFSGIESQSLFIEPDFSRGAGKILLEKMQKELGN
row,Compound,% Inhibition @ 10 uM [%]
1,O=C1C2CC=C(Cl)CC2C(=O)N1CCN1CCCCC1 (stereo not drawn),6.69
2,CSc1ccccc1NC(=O)C1C2CCC(C2)C1C(=O)O (stereo not drawn),-0.996
3,COCCNC(=O)C1=Cc2sc3c(c2CS1)CCCC3,3.54
4,N#CC1=C(N)Oc2[nH]nc(-c3ccc4ccccc4c3)c2C1c1ccncc1 (stereo not drawn),-3.16
5,Cc1cc(-c2ccc(S(=O)(=O)N3CCN(C4CCCCC4)CC3)s2)on1,-5.5
6,CC(C)C[C@H](NC(=O)OCc1ccccc1)C(=O)N[C@@H](CCc1ccccc1)C(=O)C(C)(C)O,0.744
7,Nc1cnn(C2OC(CO)C(O)C2O)c(=O)n1 (stereo not drawn),-1.26
8,O=C(C1CCN(S(=O)(=O)c2c[nH]cn2)CC1)N1CCC(Cc2ccccc2)CC1,-2.29
9,Cc1onc(-c2ccccc2)c1C(=O)N1CCN(C)CC1,-2.2
10,Cc1ccc(Oc2nc3ccccn3c(=O)c2/C=C(\C#N)C(=O)NC2CCCC2)cc1,-6.23
11,O=C(NCCc1ccccc1)c1cc2ccccc2o1,-2.27
12,O=C(NCc1ccncc1)c1ccc(Br)cc1,-3.82
13,CCNC(=O)COc1ccc(S(=O)(=O)NC2CCCCC2)cc1,2.17
14,CCOc1ccccc1/C=C1/SC(=O)N(CN2CCCCC2)C1=O,-0.63
15,CCCCOc1ccc(NS(=O)(=O)c2ccc(Br)cc2C)cc1,2.7
16,C=CC/N=C/C1=C(O)CC(C)(C)CC1=O,-3.06
17,CC(NC(=O)C1(S(=O)(=O)c2ccc(Cl)cc2)CC1)c1ccccc1 (stereo not drawn),-0.0508
18,CC1(C)CC(=O)C(CCC#N)C(=O)C1,-1.8
19,CCCCNC(=O)CN(C)S(=O)(=O)c1cc(Cl)ccc1Cl,0.755
20,c1ccc(C2CCCN(c3ncnc4[nH]cnc34)C2)cc1 (stereo not drawn),-3.24
21,CCN1CCN(Cc2ccc(Br)o2)CC1,4.57
22,C/C(Nc1ccc(Cl)cc1)=C1\C(=O)NC(=O)N(Cc2ccccc2)C1=O,4.33
23,C=CCNC(=O)/C(C#N)=C/c1c(Oc2ccccc2OC)nc2ccccn2c1=O,3.63
24,Cc1nn(-c2ccccc2)c(C)c1Sc1ccc([N+](=O)[O-])cc1,11.3
25,COc1ccc(C(=O)/C=C/c2ccc3c(c2)OCO3)c(OC)c1,-1.25
26,C#CCN(C)CC(=O)Nc1ccc(Br)cc1,0.215

row,Compound,% Inhibition @ 10 uM [%]
1,Cc1nc2ccc(S(=O)(=O)CCC(=O)NCc3cccs3)cc2s1,-5.88
2,CCc1c(C#N)c(SCCC(=O)Nc2ccc(OC)cc2)nc2c1C(=O)CC(C)(C)C2,-11.9
3,COc1ccccc1OCC(=O)Nc1ccc(NC(C)=O)cc1,4.31
4,Cc1nc(N2CCC(C)CC2)c2c(C)c(C(=O)NCC3COc4ccccc4O3)sc2n1 (stereo not drawn),2.38
5,Cn1c(SCC(N)=O)nc2c(c1=O)SCC2,0.205
6,CCCN1CCN(C(=O)C2CCN(c3nn4cc(-c5ccc(OC)cc5)nc4s3)CC2)CC1,-1.41
7,C=CCOC(=O)C1=C(C)NC(=O)NC1c1cccc(Oc2ccccc2)c1 (stereo not drawn),-3.69
8,CCCc1cc(O)nc(SCC(=O)Nc2ccc(C)cc2C)n1,-1.04
9,CCOc1cccc(-c2nc(O)c3c(n2)Oc2c(cccc2OC)C3)c1O,3.92
10,C=CCN1C(=O)/C(=C/Nc2ccc(O)cc2)C(=O)N(CCCC)C1=O,4.01
11,N#Cc1c(-c2cccc(Br)c2)cc(-c2ccccc2)nc1N,3.48
12,O=C(O)CCC(=O)Nc1ccc(Br)cn1,1.66
13,CCNC(=O)/C(=C\c1ccc(OC)cc1)NC(=O)c1ccccc1OC,3.96
14,CC1(C)OC(=O)N(CCCCCCN2C(=O)OC(C)(C)C2(C)O)C1(C)O (stereo not drawn),-3.42
15,O=[N+]([O-])c1cccc(/C=C/C2=CCN(CC(O)c3ccccc3)CC2)c1 (stereo not drawn),3.9
16,CC1Cn2c(C(=O)NC(C)c3ccccc3)cc3c(Cl)ccc(c32)O1 (stereo not drawn),-3.34
17,C/N=C1\S/C(=C\c2cccn2-c2ccc(Cl)cc2)C(=O)N1C,4.39
18,CC(=O)N1CC(=O)Nc2ccc(C)cc2C1c1ccccc1 (stereo not drawn),4.88
19,CCc1cc2c(cc3c(=O)n(CC(=O)NCc4ccc(OC(C)C)cc4)nc(CC)n32)s1,6.35
20,CCc1cc2c(NCc3ccccc3)ncnc2s1,-4.73
21,CCOc1ccc2c(c1)C(C)=CC(C)(C)N2S(=O)(=O)c1ccc(C)cc1,-2.32
22,CCc1ccc(-c2[nH]nc3nc(-c4ccc(O)c(OC)c4)cc(C(=O)O)c23)cc1,-2.07
23,CC(C)N(Cc1ccccc1)C(=O)Cc1noc2ccccc12,1.51
24,COCCCN1CN(Cc2ccccc2)CNC1=S,-7.56
25,COc1ccc(CCNC(=O)c2ccc(CS(=O)c3ccccc3Cl)o2)c(OC)c1OC (stereo not drawn),-1.86
